Source: publication PMC4336329 (PLoS ONE, 2015)
Among all 310,000 compounds or so, about 2,200 (0.71%) showed an effect of 50% or more. Effects have a minus sign here. This is one part of the list.

biological target: human ether-à-go-go-related gene (hERG) potassium channel (human, UniProt Q12809); assay: primary screen, population patch clamp on CHO cells stably expressing hERG
Sequence (Q12809 whole entry, looked up): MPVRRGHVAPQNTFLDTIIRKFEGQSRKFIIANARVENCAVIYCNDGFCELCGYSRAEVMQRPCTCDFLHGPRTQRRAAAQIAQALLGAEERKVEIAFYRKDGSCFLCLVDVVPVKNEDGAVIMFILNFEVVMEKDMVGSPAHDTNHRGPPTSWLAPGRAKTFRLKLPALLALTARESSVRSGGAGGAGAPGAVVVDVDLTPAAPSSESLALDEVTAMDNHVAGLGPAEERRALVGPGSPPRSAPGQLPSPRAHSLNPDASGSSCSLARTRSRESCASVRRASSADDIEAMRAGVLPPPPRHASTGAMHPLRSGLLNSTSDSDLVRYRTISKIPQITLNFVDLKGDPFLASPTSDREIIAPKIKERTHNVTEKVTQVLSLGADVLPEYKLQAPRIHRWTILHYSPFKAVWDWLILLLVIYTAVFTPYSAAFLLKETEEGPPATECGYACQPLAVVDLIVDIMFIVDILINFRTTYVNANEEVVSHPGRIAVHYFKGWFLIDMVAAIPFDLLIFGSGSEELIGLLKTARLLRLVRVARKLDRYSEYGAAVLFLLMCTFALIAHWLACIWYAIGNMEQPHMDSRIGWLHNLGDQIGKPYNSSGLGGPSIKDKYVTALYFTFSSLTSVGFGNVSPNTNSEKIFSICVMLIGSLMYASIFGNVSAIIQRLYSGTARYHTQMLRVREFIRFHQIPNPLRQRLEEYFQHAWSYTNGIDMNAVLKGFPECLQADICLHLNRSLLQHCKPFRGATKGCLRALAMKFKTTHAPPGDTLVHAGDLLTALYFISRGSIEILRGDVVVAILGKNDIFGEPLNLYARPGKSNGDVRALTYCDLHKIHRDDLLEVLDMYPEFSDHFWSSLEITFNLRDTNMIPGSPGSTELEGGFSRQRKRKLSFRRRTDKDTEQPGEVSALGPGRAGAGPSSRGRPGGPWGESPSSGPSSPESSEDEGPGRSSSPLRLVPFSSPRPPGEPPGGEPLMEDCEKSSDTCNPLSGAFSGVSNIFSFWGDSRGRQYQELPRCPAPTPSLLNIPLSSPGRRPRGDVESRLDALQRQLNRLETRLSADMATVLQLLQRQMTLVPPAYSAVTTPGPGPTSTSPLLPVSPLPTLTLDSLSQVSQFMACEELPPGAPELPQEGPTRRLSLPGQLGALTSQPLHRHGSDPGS

Compound	hERG current change (%, negative = inhibition) at 1uM
CCOc1ccc(CN2CCCC(CNC(=O)c3ccc(F)cc3)C2)cc1CO (centres unmarked)	-50.5%
CC[C@@]12C(=O)N(c3ccc(C)cc3)C(=O)N1[C@H](c1cccc(C)c1)[C@@H]1C(=O)N(Cc3ccccc3)C(=O)[C@@H]12	12.2%
COc1ccccc1-c1nn(Cc2ccccc2)cc1C(=O)N1CCN(c2ncccn2)CC1	7.89%
CN(C)CC(C)(C)NS(=O)(=O)c1ccc(Cl)cc1	3.84%
O=C(CCn1c(=O)oc2cc(Cl)ccc21)Nc1ccc(N2CCOCC2)cc1	14.6%
C=CCSc1nnc(NC(=O)c2c(CC)noc2C)s1	8.92%
CCCC(CCC)C(=O)OC1C[C@H]2CC[C@@H](C1)[N+]2(C)C.[Br-] (some centres unmarked)	7.8%
COc1ccc(-n2c(=O)c3ccccc3c3ccccc3c2=O)c(OC)c1	13.4%
COc1cc(/C=N/NC(=O)CCN2CCN(c3ccccc3)CC2)cc(OC)c1OC	4.67%
COc1ccc(-c2cc(C(=O)NNC(=O)c3csc(N4CCOCC4)n3)c3ccccc3n2)cc1	23.5%
CCOC(=O)c1nnn(-c2nonc2N)c1CSc1nnc(N)s1	4.69%
CC1CCCCN1CC(=O)Nc1sc2c(c1C#N)CCC2 (centres unmarked)	13.8%
NC(=O)c1ccsc1NC(=O)CS(=O)(=O)c1ccc(F)cc1	-25.9%
CCN(C(=O)c1cc2c(=O)[nH]c3ccc(C)cc3c2s1)c1cccc(C)c1	14%
COc1ccccc1N(CC(=O)N1CCCCCC1)S(=O)(=O)c1ccc(C)cc1	-4.1%
CCOC(=O)CCN(c1ccccc1)S(=O)(=O)c1ccc(-c2ccc(=O)[nH]n2)s1	-6.83%
CN(C)CCCNC(=S)N(CCCN(C)C)Cc1cc2cc3c(cc2[nH]c1=O)OCO3	12.9%
COc1ccc(Cl)cc1NS(=O)(=O)c1cccc(C(=O)NCCCN2CCCC2=O)c1	10.8%
Cc1ccccc1NC(=O)c1ccc(S(=O)(=O)N(C)C)cc1	6.02%
Cc1ccc2ncnc(Nc3cccc([N+](=O)[O-])c3)c2c1	-6.24%
CCCn1ncc(CN2CCN(Cc3ccsc3)C(CCO)C2)c1C (centres unmarked)	5.77%
Cc1ccc(C(=O)N2CCCc3ccccc32)c(F)c1F	19.1%

Compound	hERG current change (%, negative = inhibition) at 1uM
O=C(CNC(=S)N(Cc1ccc(F)cc1)C1CCCCC1)NCC1CCCO1 (centres unmarked)	8.02%
COc1ccc(Cn2nnnc2CN2CCc3ccccc32)cc1	13.1%
Cc1cc(S(=O)(=O)NCCCN2CCOCC2)c(C)cc1Cl	-0.0197%
CN(C(=O)CC1C(=O)NCCN1Cc1c(F)cccc1Cl)C1CCOCC1 (centres unmarked)	10.3%
COC(=O)c1ccc(NC(=O)CCS(=O)(=O)c2ccc3c(c2)NC(=O)C(C)S3)cc1 (centres unmarked)	8.37%
COC(=O)c1cc(COc2ccc3c4c(c(=O)oc3c2)CCC4)c(C)o1	9.97%
O=C(CCCOc1ccccc1)Nc1cc(S(=O)(=O)N2CCOCC2)ccc1N1CCOCC1	1.7%
COc1ccc(NC(=O)c2ccc(-c3ccc(OC)cc3)s2)cc1	5.66%
CC(=O)c1cccc(CN2CCN(C(C)C)C(CCO)C2)c1 (centres unmarked)	9.2%
COc1ccc2c3n(nc2c1)CCN=C3c1cc(Cl)c(N)c(Cl)c1	16.4%
CCOC(=O)c1c(/N=C/C2C(=O)CC(C)(C)CC2=O)sc(C)c1C	6.57%
CCC(C)(C)NCC(=O)Nc1ccc(OC(F)(F)F)cc1	-6.84%
CSc1ncccc1C(=O)OCC(=O)Nc1cc(C(F)(F)F)ccc1N1CCOCC1	6.99%
COc1cc(C(C(=O)NCC2CCCO2)N(C(=O)Cn2nnc3ccccc32)c2ccc(OC)c(OC)c2)ccc1O (centres unmarked)	11.3%
Cl.O=C(O)c1ccc(CNCc2ccc(Cl)cc2Cl)cc1	16.4%
CCn1cc([N+](=O)[O-])c(C(=O)Nc2ccn(Cc3ccccc3)n2)n1	3.02%
O=C(N/N=C/c1ccc(Cl)cc1)C1CC12CCC2 (centres unmarked)	7.16%
CCCCN(C)C(=O)CNC(=O)c1nn(-c2ccc(OC)cc2OC)c(=O)c2ccccc12	16%
CC1CCCCC12NC(=O)N(CC(=O)OCC(=O)N(C)C1CCCCC1)C2=O (centres unmarked)	5.56%
Cc1cccc(C(=O)OC(C)CN2C(C)CCCC2C)c1.Cl (centres unmarked)	9.78%
COc1ccc(S(=O)(=O)N(C)c2ccc(C(=O)NC3CC3)cc2)cc1	16%
FC(F)(F)c1ccccc1NC(=S)NN1CCOCC1	11.9%

Compound	hERG current change (%, negative = inhibition) at 1uM
O=[N+]([O-])c1cccc(-c2ccc3nnc(SCc4ccccn4)n3n2)c1	2.2%
COc1ccc(C(=O)CSc2n[nH]c(-c3ccco3)n2)cc1	10.7%
NS(=O)(=O)c1ccccc1NC(=S)Nc1ccccc1S(N)(=O)=O	7.67%
COc1ccccc1C(=O)Nc1cccc2c1CCCC2	9.17%
CCOC(=O)c1ccccc1CN1C(=O)c2ccccc2S1(=O)=O	11.4%
O=C(COc1ccc([N+](=O)[O-])cc1)Nc1cccc2nsnc12	1.62%
CCn1c(SCC(=O)Nc2nnc(C)s2)nc2c(c1=O)SC(C)C2 (centres unmarked)	17.4%
O=C(NC1CCCC1)C(c1ccncc1)N(C(=O)Cc1cccs1)c1ccc(F)cc1 (centres unmarked)	12.1%
CC(C)C(NS(=O)(=O)c1cccc2nsnc12)C(=O)NC1CCCCC1 (centres unmarked)	18.4%
N#CC1(C#N)C2=C(CCCC2)NC(c2ccccc2)C1(C#N)C#N (centres unmarked)	16.3%
CCn1c(CSc2nnc(-c3ccc4c(c3)OCO4)o2)nc2cc(S(=O)(=O)N(C)C)ccc21	2.97%
O=C(C1=NNC2C(=O)N(c3ccccc3)C(=O)C12)c1nc(Cl)ccc1Cl (centres unmarked)	7.09%
COc1cc2ncnc(NCCc3ccccc3)c2cc1OC	6.17%
O=C(c1ccccn1)N(c1ccccc1)C1(C(=O)NC2CCCCC2)CCCCC1	-1.28%
O=C(CN1C(=O)NC2(CCc3ccccc32)C1=O)Nc1cccc(F)c1 (centres unmarked)	-0.7%
CC(=O)N1CCN(C(=O)CSc2nnc(C)n2-c2ccccc2)CC1	8.5%
CCOC(=O)C1=C(CSc2nccn2C)NC(=O)NC1c1ccc(OC)cc1 (centres unmarked)	3.59%
COc1ccc(C(CNC(=O)COc2ccc(C)c(C)c2)N2CCCCC2)cc1 (centres unmarked)	4.01%
COCCNC(=O)C(C)Oc1ccc(Cl)cc1Cl (centres unmarked)	10%
COc1ccc(NCc2nnc(-c3ccccc3)o2)cc1	8.71%
CC(C)c1ccc(NNC(=O)C2CCC2)cc1	12.4%
N#CC(C(=O)C1CCCCC1)c1nc2ccccc2[nH]1 (centres unmarked)	5.52%

Compound	hERG current change (%, negative = inhibition) at 1uM
Cc1c(C)c2ccc(OCC(=O)N3CCN(C(=O)C4COc5ccccc5O4)CC3)cc2oc1=O (centres unmarked)	1.18%
COc1ccc2cc(-c3cc(C(=O)O)c4ccccc4n3)ccc2c1	11.4%
O=C1[C@H]2[C@H](ON3CCCC[C@H]23)C(=O)N1c1cccc(C(F)(F)F)c1	14.8%
N=C1C(c2ccccc2)=C(O)CN1CCCO	7.75%
COc1cccc(CNC(=O)c2csc3c2CCCC3)c1	11.5%
N#Cc1c(Cl)cccc1N1CCCC1	13.6%
Cc1ccc(CN2CCN(/N=C/c3cc(Br)ccc3F)CC2)cc1	16.9%
Cc1nn(C)cc1C(C(=O)NC1CCCCC1)N(Cc1ccccc1Cl)C(=O)c1cnccn1 (centres unmarked)	6.25%
O=c1c2ccccc2nc(CSc2nnnn2-c2ccccc2)n1-c1cccc(C(F)(F)F)c1	15.6%
COc1cccc(NC(=O)CN(C)C(=O)/C=C/c2ccc3ccccc3n2)c1	7.44%
CCOC(=O)c1ccc(CN(Cc2ccccc2)S(=O)(=O)c2cccc([N+](=O)[O-])c2)cc1	15.2%
C/C(=N/NC(=O)CCc1ccccc1)c1ccc2c(c1)OCO2	19.2%
Cc1cccc(N2C(=O)C(O)=C(C(=O)c3cccs3)C2c2ccc(Cl)cc2)n1 (centres unmarked)	4.89%
CSCCC1NC(=O)N(CC(=O)Nc2cc(C)on2)C1=O (centres unmarked)	9.03%
COC(=O)CCC(=O)N1CCc2cc(S(=O)(=O)N3CCc4ccccc43)ccc21	12.9%
COc1cccc(C(C(=O)NCC2CCCO2)N(CC2CCCO2)C(=O)CN2C(=O)c3ccccc3S2(=O)=O)c1 (centres unmarked)	12.5%
CCc1ncc(CN2CCCC(C(=O)Nc3cccc(-c4cccc(C)c4)c3)C2)cn1 (centres unmarked)	7.1%
Nc1cc(=O)nc(SCC(=O)Nc2ccccc2)n1-c1ccccc1	15.5%
CCOc1ccc(-c2nn(-c3ccccc3)cc2/C=C(\C#N)S(=O)(=O)c2ccccc2)cc1C	8.73%
CC(=O)N/C(=C/c1ccc2c(c1)OCO2)C(=O)NCc1ccccc1	8.28%
